Variants at the floor of the assay are shown more often than the library holds them.
B1: TPR 5TU (parent)
chain: GGAUCUUCUCGAUCUAACAAAAAAGACAAAUCUGCCACAAAGCUUGAGAGCAUCUUCGGAUGCAGAGGCGGCAGCCUUCGGUGGCGCGAUAGCGCCAACGUUCUCAACUAUGACACGCAAAACGCGUGCUCCGUUGAAUGGAGUUUAUCAUG

Variants of: B1
Test: polymerase ribozyme fitness, log enrichment relative to wild type (log ratio); higher = more active; in vitro selection for triplet polymerase activity
In short: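 Both subunits of a heterodimeric triplet polymerase ribozyme were given their own mutant library, built by PCR and transcribed. Each library was annealed with a biotinylated primer, the partner subunit and triplets, incubated frozen at −7 °C, and its extended constructs gel-excised, captured on streptavidin beads and amplified by RT-PCR, all in one round done in triplicate. Fitness is the logarithm of genotype enrichment relative to wild-type enrichment, with replicates averaged by inverse-variance weighting. That logarithm is base 2, and Illumina-sequenced genotypes needed ≥10 input reads and ≥1 read per output.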
With GGAUCUUCUCGAUCUAACAAAAAAGACAAAUCUGCCACAAAGCUUGAGAGCUUCUACGGAUGCAGUGGCGGCAGCCUUCGGUGGCGCGAUAGAGCCAACGUUCUCAACUAUGACACGCAAAAGGCGUGCUCCGUUGAAUGGAAUUAAUCAUG [A52U U56A A66U C93A C123G G143A U146A] the “polymerase ribozyme fitness (log ratio)” value was ≤ -4.2. With GGAUCUUCUCGAUCUAACAAAAAAGACAAAUCUGCCACAAAGCUUGAGAGCUUCUUCGGAUGCAGAGGCGGCAGCCUUCGGUGGUGCGAUAGCGGCAACGUUCUCAACUAUGACACGCAAAACUCGUGCUCCGUAGAAUGGAGUUUAUCAUG [A52U C85U C95G G124U U135A] the “polymerase ribozyme fitness (log ratio)” value was ≤ -4.2. For GGAUCUUCUCGAUCUAACAAAAAAGACAAAUCUGCCACAAAGCUUGAGAGCUUCUUCGGAUGCAGAGGCGGCAGGCUUCGGUGGCGCGAUAGCGCCAGCGUCCUCAACUAUGACACGCAAAACGCGUGCUCCGUUGAAUGGAGUUUAUCAUG [A52U C75G A98G U102C], the “polymerase ribozyme fitness (log ratio)” value was ≤ -4.2. With GGAUCUUCUCGAUCUAACAAAAAAGACAAAUCUGCCACAAAGCUUGAGAGCUUCUUCGGAUGCAGAGGCGGCCGCCUUCGGUCACGCGAUAUCGCCAACGUUCUCAACUAUGACACGCAAAAGGCGUGCUCCGUUGAAUGGAGUUUAUCAUG [A52U A73C G83C G84A G92U C123G] the “polymerase ribozyme fitness (log ratio)” value was ≤ -4.2. With GGAUCUUCUCGAUCUAACAAAAAAGACAAAUCUGCCACAAAGCUUGAGAGCUUCUUCGGAUGCAGAGGCGGCAGCCUCCGGUGGCGCGAUAGCGCCAACGUCCUCAACUAUGACACGCAAAACGCGUGCUCCGUUGAAUGGAGUUUAUCAUG [A52U U78C U102C] the “polymerase ribozyme fitness (log ratio)” value was -2.88. In the case of GGAUCUUCUCGAUCUAACAAAAAAGACAAAUCUGCCACAAAGCUUGAGAGCUUCUUCGGAUGCAGAGGCGGCAGCCUUCGGUGGCGCCAUAGCGCGAACGUUCUCAACUAUGACACGCAAAACGCGUGCUCCGUUGAAUGGAGUUUAUCAUG [A52U G88C C96G], the “polymerase ribozyme fitness (log ratio)” value is reported as ≤ -4.2. In the case of GGAUCUUCUCGAUCUAACAAAAAAGACAAAUCUGCCACAAAGCUUGAGAGCUUCUUCGGAUGCACAGGCGGCAGACUUCGGUGGCGCGAUAGCGUCAACGUUCUCAACUAUGACGCGCAAAACGCGUGCUCCGUUGAAUGGAGUUUAUCAUG [A52U G65C C75A C95U A115G], the “polymerase ribozyme fitness (log ratio)” value is reported as ≤ -4.2. With GGAUCUUCUCGAUCUAACAAAAAAGACAAAUCUGCCACAAAGCUUGAGAGCUUCUGCGGAUGCAGAGGCGGCUGCCUUCGGUGGCGCGAUACCGCCAACGUUCUCAACUUUGACUCGCAAAACGCGUGCUCCGUUGAAUGGAGUUUAUCAUA [A52U U56G A73U G92C A110U A115U G152A] the “polymerase ribozyme fitness (log ratio)” value was ≤ -4.2. In the case of GGAUCUUCUCGAUCUAACAAAAAAGACAAAUCUGCCACAAAGCUUGAGAGCGUCUUCGGAUGCAGAGGCGGCAGCCUUCGGUGGCGCGACUGCGCCAACGUUCUCAACUAUGACACGCAAAACGCGGGCUCCGUUGAAUGGAGUAUAUCAUU [A52G U90C A91U U127G U145A G152U], the “polymerase ribozyme fitness (log ratio)” value is reported as ≤ -4.2. With GGAUCUUCUCGAUCUAACAAAAAAGACAAAUCUGCCACAAAGCUUGAGAGCGUCUUCGGAUGCAGAGGCGGCAGCCUCCGGUGGCGCGUUAGCGCCAACGUUCUCAACUAUGACACGCAAAACGCGUGCUCCGUUGAAUGGAGUUUAUCAUG [A52G U78C A89U] the “polymerase ribozyme fitness (log ratio)” value was -1.24. In the case of GGAUCUUCUCGAUCUAACAAAAAAGACAAAUCUGCCACAAAGCUUGAGAGCUUCUUCGGAUGCGGAGGCGGCAGCCUUCGGUGGCGCGAUAGCGCCUACGUUCUCAACUAUGACACGCAAAACGCGUGCUCCGUUGAAUGGAGUUUAUCAUG [A52U A64G A97U], the “polymerase ribozyme fitness (log ratio)” value is reported as ≤ -4.2. In the case of GGAUCUUCUCGAUCUAACAAAAAAGACAAAUCUGCCACAAAGCUUGAGAGCGUCUACGGAUGCAGAGGCGGCAGCCUUCGGUGGCGCGAUAGCGCCAACGUUCUCAACUAUGACACGCAAAACGCGUGCUCCGUUGAAUGGAGUUUAUCAUG [A52G U56A], the “polymerase ribozyme fitness (log ratio)” value is reported as -0.876. In the case of GGAUCUUCUCGAUCUAACAAAAAAGACAAAUCUGCCACAAAGCUUGAGAGCGUCUUCGGAUGCAGAGGCGGCAGCCUUCGGUGGCGCGAUAGCGCCAACGAUCUCAACUAUGACACGCAAAACGCGUGCUCCGUUGAGUGGAGUUUAUCAUG [A52G U101A A138G], the “polymerase ribozyme fitness (log ratio)” value is reported as ≤ -4.2. In the case of GGAUCUUCUCGAUCUAACAAAAAAGACAAAUCUGCCACAAAGCUUGAGAGCUUCUUCGGAUGCAGAGGCGGCAGCCUUCGGUGGAGCGAUAGCGCCAACGUUCUCAACUAUGACACGCAAAACGCAUGCUCCGUUGAAUCGAGUUUAUCAUG [A52U C85A G126A G140C], the “polymerase ribozyme fitness (log ratio)” value is reported as ≤ -4.2. For GGAUCUUCUCGAUCUAACAAAAAAGACAAAUCUGCCACAAAGCUUGAGAGCUUCUUCGGAUGCAGAGGCGGCAGUCUUCGGUGGCGCGAUAGCGCCAACGUUCUCAACUAUGACACGCAAAACGCGUGCUCCGUUGAAUGGAGUUUUUCAUG [A52U C75U A147U], the “polymerase ribozyme fitness (log ratio)” value was -2.82. With GGAUCUUCUCGAUCUAACAAAAAAGACAAAUCUGCCACAAAGCUUGAGAGCUGCUUCGGAAGCAGAGGCGGCAGCCUUCGGUGGCGCGAUGGCGCCAACGUUCUCAACUAUGACACGCAAAACGCGUGCGCCGUUGAAUGGAGGUUAUCAUG [A52U U53G U61A A91G U130G U144G] the “polymerase ribozyme fitness (log ratio)” value was ≤ -4.2. In the case of GGAUCUUCUCGAUCUAACAAAAAAGACAAAUCUGCCACAAAGCUUGAGAGCUUCUUCGGAUGCAGAGGCGGCAGCCUUCGGUGGCGCGAUAGUGCCAACGUUCUCAACUAUGACACGCUAAACUCGUGCUCCGUUGAAUGGAGUUUAUCAUG [A52U C93U A119U G124U], the “polymerase ribozyme fitness (log ratio)” value is reported as -3.24. With GGAUCUUCUCGAUCUAACAAAAAAGACAAAUCUGCCACAAAGCUUGAGAGCUUCUUCGGAUGCAGAGGCGGCAGCCUUCGGUGACGCGAUAGCGCCAACGUUCUCAACUAUGACACGCAAAACGCGUGCUCCGUUGAAUGGACUUUAUCAUG [A52U G84A G143C] the “polymerase ribozyme fitness (log ratio)” value was -3.92. For GGAUCUUCUCGAUCUAACAAAAAAGACAAAUCUGCCACAAAGCUUGAGAGCUUCUUCGGAUGCAGAGGCGGCAGCCUUCGGUGGCGCGAUAGCGCCAACGUUCUCAACUAUGACACGCAAAGCGCGUGCUCCGUUGAAUGGAGUUUAUCAUG [A52U A122G], the “polymerase ribozyme fitness (log ratio)” value was -3.43.
